Measurements reported in publication PMC3447951.
These are yes or no findings as the source states them, for the method shown. For part of these data: In cells and extracts the contact can be indirect. Some binding calls cover weakened binding; strength is not graded here. Where a sequence is shown, tags or fusion partners need not be part of it. One block for each binder: values may come before it.

Columns and labels:
[1] = target: T1, HYM1 (two-hybrid fusion) (N. crassa) (UniProt Q1K4S9); assay: two-hybrid; Matchmaker Two-Hybrid system 3 (Clontech); pGBKT7 (GAL4 DNA-binding domain) and pGADT7 (GAL4 activation domain) fusions co-expressed in S. cerevisiae AH109; growth on SD medium lacking adenine, histidine, leucine and tryptophane
T1 sequence: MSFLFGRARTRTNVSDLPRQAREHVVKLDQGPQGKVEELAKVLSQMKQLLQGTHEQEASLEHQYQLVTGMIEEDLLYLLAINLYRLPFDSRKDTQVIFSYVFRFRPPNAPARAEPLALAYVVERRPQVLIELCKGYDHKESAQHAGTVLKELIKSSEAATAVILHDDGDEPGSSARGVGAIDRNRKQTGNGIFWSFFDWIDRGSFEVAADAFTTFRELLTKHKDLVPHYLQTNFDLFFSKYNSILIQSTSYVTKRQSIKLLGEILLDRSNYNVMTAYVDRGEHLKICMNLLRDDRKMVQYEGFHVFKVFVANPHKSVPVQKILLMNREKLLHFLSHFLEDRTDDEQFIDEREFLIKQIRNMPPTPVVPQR

[2] = target: T2, HYM1-GFP (GFP-tagged HYM1 expressed ectopically at the his-3 locus) (N. crassa) (UniProt Q1K4S9); assay: co-IP; anti-GFP immunoprecipitation from N. crassa cell extracts of myc-cot-1;HA-pod-6 + hym-1-gfp::his-3; blots for myc-COT1 and HA-POD6
T2 sequence: T1 sequence

B2: HA-POD6 (enzyme, UniProt V5IQR8 1-928)
chain: MATLSVYGSDFLTTTKKKAIEDAKKMQTVVAEECNKSGKEAPPYQLEELIGKGSFGRVYKATDNKSNAVVAVKIIDIEESDRENPRLADTYSEFMKETSALKLLSNSGAKNINLILDVLPVGQSMWLITEYCAGGSVATLMKPTAPGGLQEKWIIPILREVAEAIFWVHKEGIIHRDIKCANVLVTETGAVQLCDFGVAGIVETKFDKRSTFIGTPHWMAPELFEPTPSYSTPVDIWAFGSMVYEIASGLPPNVMSGFNIPQLGNYIKSHAPRLEGDQYSDNLKDLVAFCLVEDPAKRPTIEQVQRHPYIFNTSSEYPTASLSNLVRGYKVWEAQGGIRKSLFAPVGAQGPSDYASTALSNDEWNFSTTVDFDRMAMDSDAQAVYDVYGHNVDFDFDEEQTRRPKPKGRRRPPPPKLLALKAPLEKLFDPNTISGYNENSRAYYGLGPTSTSEAASAPEPPKDSDLNLRQYEPSSQAALRESLIDLDASFDGNDLSQFVDMETIKAGPRGSIDYAAFNPNPDFSKPPLSDPADMPMNINRRTQDWKFPSMAAPPASAHPEMSRFPWNEERSNDSHNDNFVRPPLIHHPTDPLGFQSTGYDSMPPKPPVDNRVSVGSLIDLDESLPMPTNDFTNREYTRPSTANSDAASVSGSEIGGANPFDLERHASLYQPLPVVRSSSVREPSIYVSDDSDYARVAQAPSEEHFIGTNGRGTPDYASSVNGGGSIGNGSIGGGSIGGGSIGSRTSSRAHSRADSYSYATDDDVGGYSAGEYAESEYLGGSMDPMAMSGEGRNRSRRRPSGMRPDPDSHHPPRGYGMGGSMNGNNGTGSHGGGHHGHQVHHGHGHGQYHGHGHGHSNSQGSTDMMHMPHVPEPPRVRVMQGMANREEVRDDVMRLLASFSEHLGFANAHVNTLPVRQGRRGSEVDTSV
- binding [2]: binds

B3: COT1 (two-hybrid fusion) (enzyme, UniProt P38679 1-598)
chain: MDNTNRPHLNLGTNDTRMAPNDRTYPTTPSTFPQPVFPGQQAGGSQQYNQAYAQSGNYYQQNHNDPNTGLAHQFAHQNIGSAGRASPYGSRGPSPAQRPRTSGNSGQQQTYGNYLSAPMPSNTQTEFAPAPERNPDKYGPNANNNQKKCSQLASDFFKDSVKRARERNQRQSEMEQKLGETNDARRRESIWSTAGRKEGQYLRFLRTKDKPENYQTIKIIGKGAFGEVKLVQKKADGKVYAMKSLIKTEMFKKDQLAHVRAERDILAESDSPWVVKLYTTFQDANFLYMLMEFLPGGDLMTMLIKYEIFSEDITRFYIAEIVLAIDAVHKLGFIHRDIKPDNILLDRGGHVKLTDFGLSTGFHKLHDNNYYTQLLQGKSNKPRDNRNSVAIDQINLTVSNRAQINDWRRSRRLMAYSTVGTPDYIAPEIFTGHGYSFDCDWWSLGTIMFECLVGWPPFCAEDSHDTYRKIVNWRHSLYFPDDITLGVDAENLIRSLICNTENRLGRGGAHEIKSHAFFRGVEFDSLRRIRAPFEPRLTSAIDTTYFPTDEIDQTDNATLLKAQQAARGAAAPAQQEESPELSLPFIGYTFKRFDNNFR
- binding [1]: binds

B5: MAK2 (two-hybrid fusion) (enzyme, UniProt V5IKE7 1-352)
chain: MSSAQRGGARKISFNVSEQYDIQDVVGEGAYGVVCSAVHKPSGQKVAIKKITPFDHSMFCLRTLREMKLLRYFNHENIISILDIQKPRSYETFNEVYLIQELMETDMHRVIRTQELSDDHCQYFIYQTLRALKAMHSANVLHRDLKPSNLLLNANCDLKVCDFGLARSAASQEDNSGFMTEYVATRWYRAPEIMLTFKEYTKAIDVWSVGCILAEMLSGKPLFPGKDYHHQLTLILDVLGTPTMEDYYGIKSRRAREYIRSLPFKKKVPFRTLFPNTSELALDLLEKLLAFNPVKRITVEEALKHPYLEPYHDPDDEPTAPPIPEEFFDFDKHKDNLSKEQLKQLIYQEIMR
- binding [1]: no binding

Next, values leading:

- binding [1]: binds
B1: POD6 (two-hybrid fusion) (enzyme, UniProt V5IQR8 1-928)
chain: B2 chain

- binding [2]: binds
B4: myc-COT1 (enzyme, UniProt P38679 1-598)
chain: B3 chain

- binding [1]: binds
B6: PAK kinase STE20/NCU03894 (two-hybrid fusion) (enzyme, UniProt Q7RZD3 1-954)
chain: MDGQLSLLSPTSSSSTSHSRKRLTKKQRPPSANHRTSSSFNVESLRIDAQSLDSKRSASSLRQGPNCNQSPSLARTVSVPVSVPSNAPAHTKASDLSLPRSHTTRSQSANRPYNPTQTIPTNRFILSPASSSQPQTQSPPYPSAVASTTVTSSRNKDTSKQYDPLDSCIGSFDQNKLSTDELIGAPFDGNAILSRIEATKLSAAPAPTSTTTIAHSNNISPRRVAPPPPPPPPALSRSNTDSKAARSSKPSKSPKSTISNKTMGASSFRHSASFSSAEQLPPSEKPSKSESSSSSNKRHSGDGKESRVPGMLRKKSGFSGFMNSLVGSPKKPLISAPENPVHVTHVGYDSNTGQFTGLPKEWQRLISESGITEKDRREHPQILVDVLTFYKETTEKPQEDQQLEKFHDARATDFRSPPVTGTAPLVLQTGVGYAHGPMSPMISPPASPRFPQVGHEGSFENPRAPPPVPKGPGPLPAKDINLIPSRPAPKPPAISTRPLVPPASLPAKDSGIGMPPPGDEAPMPYLPPKDNVQHMYQEEHRNRSRSNSRTNGAAPFSPVQASPLHPIATANQTAAYQQQLLQHQQEQAMAQAQAAMSGQLSRAASKRQQPTPPTSQHQHPRQPDINGAPRMPQTQGAAPQASARPRHRPRQSNAIDVVASLKRICSDGDPREIYRGFTKIGQGASGGVYTGHERGSNRLVAIKQMNLEQQPKKDLIINEILVMKESSHPNIVNFIDSYLCAGELWVVMEYMEGGSLTDVVTFNIMTEGQIASVCRETLRGLQHLHSKGVIHRDIKSDNILLSMEGNIKLTDFGFCATINEAQSKRTTMVGTPYWMAPEVVTRKEYGRKVDIWSLGIMAIEMIEGEPPYLTESPLRALWLIATNGTPHIKDEQSLSPVFRDFLYFALKVDPEKRASAHDLLRHDFMNKCVDLSTLAPLVRAAREARAQEKARKGQ
